This is an account of results in ChEMBL document CHEMBL4888484, “Replenishing the malaria drug discovery pipeline: Screening and hit evaluation of the MMV Hit Generation Library 1 (HGL1) against asexual blood stage Plasmodium falciparum ,using a nano luciferase reporter read-out” (2022).

Values joined by “and” are separate entries in the source; they are usually repeats but may differ in a detail not shown here. Equal values may be shown once. Screen size: about 150,000 compounds; about 540 (0.36%) showed an effect of 50% or more. The list shows a part of the results.

This experiment relates to Plasmodium falciparum. The experiment can be described thus: Primary screen in NF54 nanoGlo assay, in single point, at 2uM, 72h; a lower Z score goes with more inhibition. It is filed as functional, Erythrocyte. As to conditions: timepoint 72 hour.

Consider `C[C@H]1CC(C)(C)CN1C(=O)Cc1ncc[nH]1`, for which the % Inhibition – broadly, the change of the read-out against control, counted positive when it falls – is on record as -10% and the Z score came to 1.27.

Consider `Cn1ncc(C(=O)N[C@H]2CCCc3c(F)cc(F)cc32)c1Cl`, for which the “% Inhibition” value is -10% and the Z score is reported as 1.21. Regarding `Cc1cc(C)cc(-n2nnc(-c3nc(-c4cccnc4)no3)c2N)c1`, the “% Inhibition” value was -2% and the Z score worked out at 0.31. In the case of `CCCC(O)(CCC)CNC(=O)C(=O)Nc1ccn(Cc2cccnc2)n1`, the “% Inhibition” value is reported as -9% and the Z score came to 0.98. For the molecule `COCCN1CC2(CCC1=O)CCN(Cc1cnc(N(C)C)nc1)CC2`, the “% Inhibition” value is -2% and the Z score was found to be 0.28.

On to `CCn1c(-c2cc(NC(=O)CC3CCCCC3)[nH]n2)cc2ccccc21`, for which the “% Inhibition” value was determined as 0% and the Z score is listed as -0.01. On to `Cc1noc(C)c1CN(C)C(=O)NCc1ccccn1`, for which the “% Inhibition” value is given as -2% and the Z score is listed as 0.37.

Take `C[C@H](NC(=O)C1CCC(F)(F)CC1)C(N)=O`: the “% Inhibition” value turned out to be 1% and the Z score is reported as -0.17. As to `N#Cc1c[nH]c(C(=O)NC[C@@H](CO)Cc2ccccc2F)c1`, the “% Inhibition” value is -16% and the Z score is reported as 1.88. The matching figures for `CC(C)(C)OC(=O)NC1CCOC(C2CCN(C(=O)c3cncs3)CC2)C1` (centres undefined): 5% and -0.63.

`O=C(NC[C@@H](c1cccs1)N1CCCCC1)c1cccc(Cl)c1`: the “% Inhibition” value (2 µM) was 2% and 8%. Turning to `Cc1ncsc1CN1CCC2(CC1)C[C@H](c1ccccc1)C(=O)N2C`, the “% Inhibition” value is on record as -13% and the Z score is recorded as 2.11. With `Cc1cc(C)n(Cc2cc(C(=O)N(C)CCCN3CCOCC3)n[nH]2)n1`, the “% Inhibition” value is on record as -9% and the Z score is reported as 0.95. For the molecule `Cc1cc(-c2cncc(N)c2)cc2sc(N)nc12`, the “% Inhibition” value was determined as 1% and the Z score is recorded as -0.13. On to `Cc1nnc2n1CCN(CC(=O)N1CCOC3CCCCC31)C2` (centres undefined), for which the “% Inhibition” value was 0% and the Z score was 0.01.

For `CCC(C)(C)C(=O)N1C[C@H](c2nc(-c3ccccc3)no2)C2(CCOCC2)C1`, the “% Inhibition” value was -12% and the Z score was determined as 1.95. For `CCC1=NO[C@@H](Cn2cnc(-c3ccccc3)c2-c2ccc(F)cc2OC)C1`, the “% Inhibition” value is on record as -4% and the Z score is given as 0.78.

Take `COc1ccccc1CC(=O)NCCS(=O)(=O)CCNC(=O)Cc1ccccc1OC`: the “% Inhibition” value turned out to be 0% and the Z score was -0.01. Take `CCN(C)c1nc(N2CCN(c3ccccc3)CC2)nc2c1CN(C(=O)Cc1ccc(OC)cc1)CC2`: the “% Inhibition” value turned out to be 6% and the Z score is on record as -1.07. On to `Cc1cnc(N2CCC[C@H]2c2nc(C(=O)O)cs2)nc1`, for which the “% Inhibition” value is listed as -12% and the Z score worked out at 2.12. On to `CCOC(=O)c1ccc(C(F)(F)F)[nH]1`, for which the “% Inhibition” value is on record as -9% and the Z score was determined as 1.06. As to `Cc1nc(C(=O)N2CCOCC2)c2n1CCN(S(=O)(=O)c1ccccc1)CC2`, the “% Inhibition” value is listed as -3% and the Z score is on record as 0.44. For the molecule `Nc1cc(-c2cc(F)cc3cccnc23)nc(N2CCCC2)n1`, the “% Inhibition” value is listed as -1% and the Z score is 0.17. Take `N#Cc1c(F)cccc1N1CC(CF)C1`: the “% Inhibition” value is -12% and the Z score was found to be 1.49. Take `C[C@H](Nc1cccc(C(=O)NC2CC2)c1)C(=O)NC1CCCC1`: the “% Inhibition” value turned out to be 2% and the Z score was -0.4. For `CCn1nc(-c2ccc(OC)cc2F)cc1C(=O)NCCN1CCCCC1`, the “% Inhibition” value is reported as -17% and the Z score was determined as 2.1. In the case of `COc1ccc(C(=O)CC(=O)Nc2cc(C(=O)O)cc(C(F)(F)F)c2)cc1`, the “% Inhibition” value was -8% and the Z score was 1.13.

As for `Cc1noc(C)c1CN1C(=O)NC2(CCCCC2)C1=O`, the “% Inhibition” value was -2% and the Z score was determined as 0.32. Regarding `Cc1scc(C(=O)N2C[C@@H](C)N(CCO)[C@@H](C)C2)c1C`, the “% Inhibition” value is -11% and the Z score is 2.15. Turning to `CC(C)N(Cc1cccc(Cl)c1)C(=O)C[C@@H]1CC[C@H](N)C1`, the “% Inhibition” value is listed as -1% and the Z score is reported as 0.15. As to `OCc1ccc(CN2CCCc3ccccc32)o1`, the “% Inhibition” value is -5% and the Z score came out at 0.76. As for `Cc1ccc(-c2ccc(=O)n(CCC(=O)NCCCN3CC(C)CC(C)C3)n2)cc1` (centres undefined), the “% Inhibition” value was -3% and the Z score came out at 0.46. As for `C[C@@H](NC(=O)[C@H](c1ccccc1)n1cnnn1)c1nnc2ccccn12`, the “% Inhibition” value is reported as -1% and the Z score came to 0.07. For the molecule `COc1ccc(C(=O)Nc2ccccc2OC[C@H]2CCCCO2)c(OC)c1`, the “% Inhibition” value is -5% and the Z score amounted to 0.58. On to `O=C(NCCN1CCOCC1)c1csc(CN2CCC(Cc3ccccc3)CC2)n1`, for which the “% Inhibition” value was -7% and the Z score worked out at 1.18. Take `C[C@H](Oc1ccc(Cl)c(Cl)c1)C(=O)NCCCC(N)=O`: the “% Inhibition” value was -21% and the Z score is 3.47. Consider `CN1CCC[C@H](CN(C)C(=O)Nc2ccc(-c3cc[nH]n3)cc2)C1`, for which the “% Inhibition” value was -5% and the Z score is listed as 0.92. `Cc1nc(N)sc1-c1cc(-c2cccc(OC(F)F)c2)c(C#N)c(N)n1`: the “% Inhibition” value is -12% and the Z score stood at 1.34.

Turning to `O=C(Cn1ncn2nccc2c1=O)N1CCC[C@@H]1COc1ccc(F)cc1`, the “% Inhibition” value is on record as 1% and the Z score is reported as -0.09. For the molecule `CS(=O)(=O)N1CCC(NC(=O)C2=Cc3ccccc3OC2)CC1`, the “% Inhibition” value was determined as 1% and the Z score is -0.1.

For the molecule `Cn1cnc(-c2noc(C3C[C@@H]4C=C[C@H]3C4)n2)c1` (some centres undefined), the “% Inhibition” value was -1% and the Z score is listed as 0.27. With `CCOc1ccccc1CCNC(=O)N1CCCC[C@H]1c1nnc2n1CCCC2`, the “% Inhibition” value was found to be 4% and the Z score is on record as -0.47. `O=C(c1nnc2n1CCCCC2)N1CC(Oc2ccccc2)C1`: the “% Inhibition” value was -5% and the Z score was 1.03.

With `N#Cc1c(NC(=O)CC2CCCC2)sc2c1CCCCC2`, the “% Inhibition” value was -6% and the Z score is recorded as 1.11. On to `CC1CCCCC1NC(=O)COc1ccc(-c2ccccc2)cc1` (centres undefined), for which the “% Inhibition” value is reported as 1% and the Z score is given as -0.14. For the molecule `COc1cc2c(cc1NC(=O)c1cc(-c3ccccc3)nc3ccccc13)oc1ccccc12`, the “% Inhibition” value is -6% and the Z score was 0.76. For the molecule `NC(=O)c1sccc1S(N)(=O)=O`, the “% Inhibition” value was 8% and the Z score is reported as -1.01.

Take `C[C@H]1CCCCN1C(=O)c1csc(-c2cccs2)n1`: the “% Inhibition” value is listed as -6% and the Z score is listed as 1.04. For `CNc1ncccc1C(=O)N1CCC[C@H](CC(N)=O)CC1`, the “% Inhibition” value is on record as -22% and the Z score came out at 3.15. In the case of `CCOC(=O)c1[nH]c(CN(Cc2ccc(OC)cc2)S(=O)(=O)c2cc(C)cc(C)c2)c(C)c1C`, the “% Inhibition” value is 5% and the Z score was -0.48. As for `CCCCC(C)N[C@@H](CO)Cc1ccccc1` (some centres undefined), the “% Inhibition” value was found to be 12% and the Z score is -1.91. For the molecule `Cc1cc(Oc2nc(N3CCN(C)CC3)nc3c2CN(C(=O)NCc2ccccc2)CC3)ccc1F`, the “% Inhibition” value is reported as -11% and the Z score is 1.47. Take `NCC1CN(S(=O)(=O)CCc2c(F)cccc2F)CCC1C(F)(F)F` (centres undefined): the “% Inhibition” value was -5% and the Z score came to 0.75. As to `Cc1cnc(N2CC(Cc3ccco3)C2)nc1`, the “% Inhibition” value is -6% and the Z score came to 0.66. With `Cc1ncsc1-c1nnc(N2CCO[C@@H](CF)C2)n1CC(C)C`, the “% Inhibition” value amounted to 22% and the Z score is recorded as -2.77.
